Laboratory results: a collection of fitness landscapes (doi:10.1016/j.celrep.2020.107928)
In all, about 81,000 sequences were measured (“one-hybrid fitness for binding NBS DNA”: median about -0.1, highest 2% from about 0.36 on). The list shows a part of the results.

B1: Caulobacter ParB omega fusion; a variant is named by its letters at X, in order, B8GW30 (parent)
chain: MESVVVGEPGMSEGRRGLGRGLSALLGEVDAAPAQAPGEQLGGSREAPIEILQRNPDQPRRTFREEDLEDLSNSIREKGVLQPILVRPSPDTAGEYQIVAGERAWRAAQRAGLKTVPIMVRELDDLAVLEIGIIENVQRADLNVLEEALSYKVLMEKFERTQENIAQTIGKSXSHVANXMRLLXLPDEVQSYLVSGELTAXHARAIAAAADPVALAKQIIEGGLSVRETEALARKAPNLSAGKSKGGRPPRVKDTDTQALESDLSSVLGLDVSIDHRGSTGTLTITYATLEQLDDLCNRLTRGI

Variants of: B1
Test: one-hybrid fitness for binding NBS DNA (the Noc-binding site; scaled: cognate 1, non-cognate 0); higher = stronger binding
Settings: with NBS DNA site
Outline: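 Pre- and post-selection plasmids were Illumina-sequenced, three replicate libraries were pooled, and any variant with under 10 reads was removed. The libraries were Caulobacter ParB with four specificity codons randomised, selected in E. coli USO through a HIS3 reporter whose site is 19 bp from the promoter. Cells grew 48 hours at 37°C on M9 without histidine, with 0.1 mM IPTG and 5 mM 3-AT. Fitness is the log change in variant-to-wild-type read ratio, rescaled against cognate and non-cognate.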

Row | Variant | one-hybrid fitness for binding NBS DNA
1 | MELS | ≤ 0.2
2 | THLV | ≤ 0.2
3 | WAMT | ≤ 0.2
4 | KMDT | ≤ 0.2
5 | AHSD | ≤ 0.2
6 | QCWA | 0.205
7 | KSCR | ≤ 0.2
8 | WSLV | ≤ 0.2
9 | DVND | ≤ 0.2
10 | ASHY | ≤ 0.2
11 | QANS | 0.392
12 | NRGM | ≤ 0.2
13 | NTFS | ≤ 0.2
14 | YLTI | ≤ 0.2
15 | RFCV | ≤ 0.2
16 | SYKR | 0.378
17 | SNHC | ≤ 0.2
18 | LGTE | ≤ 0.2
19 | MRAF | ≤ 0.2
20 | GDVA | ≤ 0.2
21 | TGER | ≤ 0.2
22 | QCPQ | ≤ 0.2
23 | KRVC | ≤ 0.2
24 | IFQG | ≤ 0.2

Row | Variant | one-hybrid fitness for binding NBS DNA
25 | VCWG | ≤ 0.2
26 | ILHS | ≤ 0.2
27 | YKEC | ≤ 0.2
28 | MTES | ≤ 0.2
29 | RPNA | ≤ 0.2
30 | SSGG | ≤ 0.2
31 | KWDS | ≤ 0.2
32 | KVSC | ≤ 0.2
33 | VFPY | ≤ 0.2
34 | PFQF | ≤ 0.2
35 | KTGG | ≤ 0.2
36 | STQL | ≤ 0.2
37 | PCSI | ≤ 0.2
38 | VHYL | ≤ 0.2
39 | YPWS | ≤ 0.2
40 | GFQK | ≤ 0.2
41 | YYAC | ≤ 0.2
42 | ENAC | ≤ 0.2
43 | SHNY | ≤ 0.2
44 | PNMR | ≤ 0.2
45 | LYFC | ≤ 0.2
46 | KGKC | ≤ 0.2
47 | MCVS | ≤ 0.2
48 | HCLS | ≤ 0.2

Row | Variant | one-hybrid fitness for binding NBS DNA
49 | AMQD | ≤ 0.2
50 | QLNF | ≤ 0.2
51 | KSVY | ≤ 0.2
52 | TIAA | ≤ 0.2
53 | WSKA | ≤ 0.2
54 | SLVA | ≤ 0.2
55 | MVQP | ≤ 0.2
56 | QAHN | ≤ 0.2
57 | IRLM | ≤ 0.2
58 | TCLM | ≤ 0.2
59 | LCES | ≤ 0.2
60 | TTAQ | ≤ 0.2
61 | SYLM | ≤ 0.2
62 | THGM | ≤ 0.2
63 | SWWT | ≤ 0.2
64 | DYWC | ≤ 0.2
65 | QSYN | ≤ 0.2
66 | DHKV | ≤ 0.2
67 | TTPT | ≤ 0.2
68 | CHFC | ≤ 0.2
69 | GRHR | ≤ 0.2
70 | PTEF | ≤ 0.2
71 | DASG | ≤ 0.2
72 | QMTE | ≤ 0.2

Row | Variant | one-hybrid fitness for binding NBS DNA
73 | YQSL | ≤ 0.2
74 | QKFY | ≤ 0.2
75 | FIYG | ≤ 0.2
76 | ELGC | ≤ 0.2
77 | FPMC | ≤ 0.2
78 | DLPR | ≤ 0.2
79 | GLAC | ≤ 0.2
80 | QHIA | ≤ 0.2
81 | LCQV | ≤ 0.2
82 | CRPF | ≤ 0.2
83 | PGTT | ≤ 0.2
84 | MIKS | ≤ 0.2
85 | GDSV | ≤ 0.2
86 | SYPY | ≤ 0.2
87 | ANTE | ≤ 0.2
88 | RPWG | ≤ 0.2
89 | QARM | 0.357
90 | YRMA | ≤ 0.2
91 | TRKS | 0.437
92 | NSGG | ≤ 0.2
93 | FFNS | ≤ 0.2
94 | LAHS | ≤ 0.2
95 | QSEV | ≤ 0.2
96 | NIPH | ≤ 0.2

Row | Variant | one-hybrid fitness for binding NBS DNA
97 | KSPK | ≤ 0.2
98 | GMEC | ≤ 0.2
99 | SDMS | ≤ 0.2
100 | IHAC | ≤ 0.2
101 | WLWT | ≤ 0.2
102 | GMFV | ≤ 0.2
103 | YWES | ≤ 0.2
104 | RKYW | ≤ 0.2
105 | AMSI | ≤ 0.2
106 | LIWG | ≤ 0.2
107 | DVPV | ≤ 0.2
108 | QDQM | ≤ 0.2
109 | TWLQ | ≤ 0.2
110 | HRSY | ≤ 0.2
111 | WRAS | ≤ 0.2
112 | CQSV | ≤ 0.2
113 | YVKG | ≤ 0.2
114 | LSTY | ≤ 0.2
115 | FAWS | ≤ 0.2
116 | CRVR | ≤ 0.2
117 | TLVK | ≤ 0.2
118 | TSMF | ≤ 0.2
119 | PLSW | ≤ 0.2
120 | FSDT | ≤ 0.2

Row | Variant | one-hybrid fitness for binding NBS DNA
121 | MFVG | ≤ 0.2
122 | PYLT | ≤ 0.2
123 | WSTW | ≤ 0.2
124 | RCGH | ≤ 0.2
125 | LLFI | ≤ 0.2
126 | VAAS | ≤ 0.2
127 | CFLE | ≤ 0.2
128 | NGAG | ≤ 0.2
129 | VQKA | ≤ 0.2
130 | NSLH | ≤ 0.2
131 | QPCY | ≤ 0.2
132 | RYSN | ≤ 0.2
133 | YYYR | ≤ 0.2
134 | QRYH | 0.486
135 | IARW | ≤ 0.2
136 | VTWI | ≤ 0.2
137 | QANK | ≤ 0.2
138 | RRFK | ≤ 0.2
139 | FCRS | ≤ 0.2
140 | TSIV | ≤ 0.2
141 | LYST | ≤ 0.2
142 | GRVI | ≤ 0.2
143 | SYKK | ≤ 0.2
144 | QAMW | ≤ 0.2

Row | Variant | one-hybrid fitness for binding NBS DNA
145 | MNLI | ≤ 0.2
146 | LAPL | ≤ 0.2
147 | GAFV | ≤ 0.2
148 | THRG | ≤ 0.2
149 | SMIR | ≤ 0.2
150 | SMQM | ≤ 0.2
151 | RCRF | ≤ 0.2
152 | VNKE | ≤ 0.2
153 | MAHT | ≤ 0.2
154 | DIHI | ≤ 0.2
155 | QFAC | ≤ 0.2
156 | RWYG | ≤ 0.2
157 | LSWW | ≤ 0.2
158 | PADK | ≤ 0.2
159 | LLHA | ≤ 0.2
160 | LYKD | ≤ 0.2
161 | WELS | ≤ 0.2
162 | CPVT | ≤ 0.2
163 | RERV | ≤ 0.2
164 | ALCN | ≤ 0.2
165 | CSQC | ≤ 0.2
166 | FSAG | ≤ 0.2
167 | NDAV | ≤ 0.2
168 | MQCC | ≤ 0.2

Row | Variant | one-hybrid fitness for binding NBS DNA
169 | NHRI | ≤ 0.2
170 | IYRF | ≤ 0.2
171 | IWRK | ≤ 0.2
172 | TNIL | ≤ 0.2
173 | YRAN | ≤ 0.2
174 | QHLK | ≤ 0.2
175 | QMMQ | ≤ 0.2
176 | VNIR | ≤ 0.2
177 | KRMC | ≤ 0.2
178 | ASSW | ≤ 0.2
179 | QRTA | 0.6
180 | DLRC | ≤ 0.2
181 | ESPT | ≤ 0.2
182 | RYTS | 0.453
183 | RYYD | ≤ 0.2
184 | TPEV | ≤ 0.2
185 | QVAH | ≤ 0.2
186 | RSEV | ≤ 0.2
187 | ILLL | ≤ 0.2
188 | QMAG | ≤ 0.2
189 | DNKD | ≤ 0.2
190 | DMYI | ≤ 0.2
191 | GRSE | ≤ 0.2
192 | SYLI | ≤ 0.2

Row | Variant | one-hybrid fitness for binding NBS DNA
193 | RTLA | ≤ 0.2
194 | MHSC | ≤ 0.2
195 | SNDT | ≤ 0.2
196 | LPAA | ≤ 0.2
197 | FLEL | ≤ 0.2
198 | NAWT | ≤ 0.2
199 | NDAL | ≤ 0.2
200 | QYDW | ≤ 0.2
201 | MHSS | ≤ 0.2
202 | QAVW | ≤ 0.2
203 | LLHM | ≤ 0.2
204 | VVML | ≤ 0.2
205 | QDLE | ≤ 0.2
206 | SVMR | ≤ 0.2
207 | FAYS | ≤ 0.2
208 | DWHW | ≤ 0.2
209 | YPGS | ≤ 0.2
210 | TYLY | ≤ 0.2
211 | RDMM | ≤ 0.2
212 | QGFV | ≤ 0.2
213 | RLWD | ≤ 0.2
214 | DLRM | ≤ 0.2
215 | RVYS | 0.351
216 | GMQF | ≤ 0.2

Row | Variant | one-hybrid fitness for binding NBS DNA
217 | QYKN | 0.366
218 | IVVR | ≤ 0.2
219 | AMHW | ≤ 0.2
220 | RSCP | ≤ 0.2
221 | VIMS | ≤ 0.2
222 | QSLE | ≤ 0.2
223 | QESE | ≤ 0.2
224 | QTNG | 0.286
225 | TLPN | ≤ 0.2
226 | RITL | ≤ 0.2
227 | RDTY | ≤ 0.2
228 | TWNN | ≤ 0.2
229 | CQYG | ≤ 0.2
230 | LPDD | ≤ 0.2
231 | VVST | ≤ 0.2
232 | QCYH | 0.257
233 | QSNN | ≤ 0.2
234 | SCAL | ≤ 0.2
235 | MVFD | ≤ 0.2
236 | QTIS | 0.398
237 | QYEE | ≤ 0.2
238 | MRRY | ≤ 0.2
239 | WDNG | ≤ 0.2
240 | RVQE | ≤ 0.2

Row | Variant | one-hybrid fitness for binding NBS DNA
241 | HLFA | ≤ 0.2
242 | NLGC | ≤ 0.2
243 | TLIH | ≤ 0.2
244 | ATAA | ≤ 0.2
245 | LAGW | ≤ 0.2
246 | QEER | ≤ 0.2
247 | DFPS | ≤ 0.2
248 | AEVD | ≤ 0.2
249 | GLKV | ≤ 0.2
250 | SACD | ≤ 0.2
251 | PWDA | ≤ 0.2
252 | PHRI | ≤ 0.2
253 | SFRV | ≤ 0.2
254 | FTNN | ≤ 0.2
255 | RMRR | 0.736
256 | DAGN | ≤ 0.2
257 | WVGM | ≤ 0.2
258 | RLGD | ≤ 0.2
259 | PQAG | ≤ 0.2
260 | VGKH | ≤ 0.2
261 | RSTC | ≤ 0.2
262 | MDAM | ≤ 0.2
263 | KLPN | ≤ 0.2
264 | TRMM | ≤ 0.2

Row | Variant | one-hybrid fitness for binding NBS DNA
265 | TCHT | ≤ 0.2
266 | RMTA | ≤ 0.2
267 | NIHC | ≤ 0.2
268 | AAWT | ≤ 0.2
269 | CKGG | ≤ 0.2
270 | IDKR | 0.338
271 | QGHC | ≤ 0.2
272 | YPWV | ≤ 0.2
273 | LRMF | ≤ 0.2
274 | GPKL | ≤ 0.2
275 | YRLT | ≤ 0.2
276 | DKFG | ≤ 0.2
277 | ACRP | ≤ 0.2
278 | TSIP | ≤ 0.2
279 | RNGW | ≤ 0.2
280 | INQT | ≤ 0.2
281 | SRSP | ≤ 0.2
282 | YPFT | ≤ 0.2
283 | SSTT | ≤ 0.2
284 | CQEI | ≤ 0.2
285 | SYAD | ≤ 0.2
286 | STDG | ≤ 0.2
287 | LLHQ | ≤ 0.2
288 | KPIF | ≤ 0.2

Row | Variant | one-hybrid fitness for binding NBS DNA
289 | KTPH | ≤ 0.2
290 | SYSM | ≤ 0.2
291 | DTPI | ≤ 0.2
292 | WHGV | ≤ 0.2
293 | ATLG | ≤ 0.2
294 | WMAS | ≤ 0.2
295 | RKAN | ≤ 0.2
296 | NQTA | ≤ 0.2
297 | YSLA | ≤ 0.2
298 | LRAY | ≤ 0.2
299 | ELTT | ≤ 0.2
300 | GSSW | ≤ 0.2
301 | HYWG | ≤ 0.2
302 | ACPA | ≤ 0.2
303 | HLIF | ≤ 0.2
304 | EARQ | ≤ 0.2
305 | QCWC | ≤ 0.2
306 | SIDG | ≤ 0.2
